# Results reported in PubChem BioAssay AID463173 (ICCB-Longwood Screening Facility, Harvard Medical School, 2010).
# Hit rate of the full screen: of about 52,000 compounds, about 1,700 (3.3%) were called active. Cut-off read from the data, not from the text of the source: active = survival mostly below about 52% (no sharp cut-off); inactive = mostly above about 56%. The list shows a part of the results.
# Test system: Wild type
# Experiment: growth inhibition of S. aureus wild type versus tarO mutant, primary screen, teichoic acid synthesis inhibitors, RN4220, OD600 (AID 463173)
# Conditions: S. aureus RN4220 wild type/DeltatarO growth, OD600, 18 h, active compounds read low, screened at 18.75 µg/mL (by protocol)
row,Structure (SMILES),survival
1,COc1cc(Nc2ncc3c(n2)CCN(Cc2cc(F)cc(F)c2)C3)cc(OC)c1,inactive: 76%
2,Cc1ccc(C)c(N2CCN(S(=O)(=O)c3ccc4c(c3)OCCO4)CC2)c1,inactive: 102%
3,CCOc1ccc(-c2csc(-c3c(N)c(C(=O)c4ccc5c(c4)OCO5)n4ccccc34)n2)cc1,inactive: 128%
4,COc1ccc(C)cc1NC(=O)CN1C(=O)COc2ccc(S(=O)(=O)NC3CCCC3)cc21,inactive: 85%
5,CCOc1ccccc1NC(=O)c1nn(C)c2c1CSc1ccccc1-2,inactive: 88%
6,O=C(CSC1=NCCN1)C1COc2ccccc2O1 (configuration not stated),inactive: 76%
7,CN(C)CCNC(=O)c1ccc(Cn2c(=O)c3cccn3c3cccnc32)cc1,inactive: 89%
8,Cn1nc(-c2ccc(N3CCCCC3)c(NC(=O)c3ccc(Cl)cc3)c2)c2ccccc2c1=O,inactive: 80%
9,COc1ccc(-n2c(=O)c3c4c(sc3n3c(SC(C)C)nnc23)COC(C(C)C)C4)cc1 (configuration not stated),inactive: 88%
10,CCCc1cc(=O)[nH]c(SCc2nc(-c3ccccc3F)no2)n1,inactive: 129%
11,CCOC(=O)c1cc(S(=O)(=O)Nc2ccccc2OCC)[nH]n1,inactive: 64%
12,Cc1ccccc1CSc1nc2c([nH]c3ccccc32)c(=O)n1C,inactive: 71%
13,Cc1ccc(-n2ncc(C(=O)NCCN3CCc4ccccc4C3)c2C2CCNCC2)cc1C,inactive: 87%
14,COc1ccc(NC(=O)c2cc(=O)c3ccc(C)c(C)c3o2)cc1Cl,inactive: 91%
15,CCCn1c(=NC(=O)c2c(-c3c(F)cccc3Cl)noc2C)c(C(=O)OCC)cc2c(=O)n3ccccc3nc21,inactive: 138%
16,C=CCn1c(N)c(C(N)=O)sc1=S,inactive: 99%
17,CC(=O)c1cccc(Nc2ccc3cc(S(=O)(=O)N4CCCC4)ccc3n2)c1,inactive: 73%
18,CC1=[N+](CCC#N)CC(C)(C)C1,inactive: 105%
19,Cc1cccc(CNC(=O)c2ccc(NC(=O)N3CCSc4ncccc43)cc2)c1,inactive: 71%

row,Structure (SMILES),survival
1,CC1CCN(S(=O)(=O)c2ccc3c(c2)N(CC(=O)NCCCN2CCCC(C)C2)C(=O)CS3)CC1 (configuration not stated),inactive: 83%
2,CCOc1ccc(NC(=O)C(C)Sc2nc3ncccc3o2)cc1 (configuration not stated),inactive: 57%
3,Cc1ccc(CC(=O)NC2CCSC2=O)cc1 (configuration not stated),inactive: 103%
4,COc1ccc(-n2nc(C(=O)Nc3cccc(C)n3)c3c4ccccc4n(C)c3c2=O)cc1,inactive: 69%
5,CC(=O)c1ccc(N2CCN(c3ncnc4c3cnn4C)CC2)cc1,inactive: 83%
6,Cc1ccc2c(c1)-c1ncc(C(=O)c3cc(Br)ccc3O)cc1CO2,inactive: 56%
7,Cc1cccc(NC(=O)c2oc3ccc(S(=O)(=O)N4CCC5(CC4)OCCO5)cc3c2C)c1C,inactive: 135%
8,Cc1cc(Nc2ccccc2O)c2ccccc2n1,inactive: 104%
9,Cc1nc(-c2ccccc2)cc(=O)[nH]1,inactive: 115%
10,CC(C)C(c1nnnn1C1CCCC1)N1CCN(C(=O)c2ccco2)CC1 (configuration not stated),inactive: 102%
11,Cc1cc(C)cc(NC(=O)Cn2c(=O)n(Cc3ccc4c(c3)OCO4)c(=O)c3oc4ccccc4c32)c1,inactive: 81%
12,N#CCSc1nc2ccccc2c(=O)n1-c1ccccc1,inactive: 117%
13,Cc1cccc(CNC(=O)Cn2ccc3cc(S(=O)(=O)N4CCC(C)CC4)ccc32)c1,inactive: 67%
14,O=C(Cn1c(=O)n(Cc2nc(-c3ccccc3)no2)c(=O)c2cc3c(cc21)OCO3)Nc1cccc(C(F)(F)F)c1,inactive: 77%
15,COc1ccc(-c2ccc(CCC(=O)O)n2-c2cc(Cl)ccc2O)cc1,inactive: 68%
16,COc1ccccc1-c1cc(C(F)(F)F)nc(S(=O)(=O)CCCC(=O)Nc2ccc(F)cc2F)n1,inactive: 84%
17,O=C(c1cnn2c1NC(c1cccs1)CC2C(F)(F)F)N1CCSCC1 (configuration not stated),inactive: 98%
18,COc1cccc(C2CC(=O)Nc3c2c(=O)n(C)c2nc4ccccc4n32)c1 (configuration not stated),inactive: 75%
19,CCOC(=O)c1c(C)[nH]c(C)c1S(=O)(=O)N(C)CC(=O)Nc1cccc(C(F)(F)F)c1,inactive: 69%

row,Structure (SMILES),survival
1,CCOC(=O)C1CCN(C(=O)Cn2ncc3c([nH]c4ccccc43)c2=O)CC1,inactive: 19%
2,Cc1cccc(C(=O)Nc2nc(-c3nnn(-c4cc(C)ccc4C)c3C)ns2)c1,inactive: 78%
3,Cc1ccc(-n2c(-c3ccc(Br)cc3)nc3c(cnn3-c3ccccc3)c2=O)cc1,inactive: 66%
4,O=C(Cn1c(=O)n(Cc2ccco2)c(=O)c2ccccc21)Nc1cccc(F)c1,inactive: 97%
5,COc1ccc(NC(=O)Cn2c(=O)n(Cc3ccco3)c(=O)c3sc4ccccc4c32)cc1OC,inactive: 95%
6,CCOc1cc(C#N)c(NC(=O)c2ccc(OC)c(S(=O)(=O)N3CCCCC3)c2)cc1OCC,inactive: 75%
7,CC(=O)c1ccc(NC(=O)c2cnc(N3CCCC3)nc2C)cc1,inactive: 80%
8,CC(C)(C)c1ccc(C(=O)N2CCC(C(=O)O)CC2)cc1,inactive: 109%
9,CCc1ccccc1NC(=O)Cn1c(=O)n(-c2ccccc2)c(=O)c2oc3ccccc3c21,inactive: 98%
10,c1ccc2[nH]c(CN3CCCCC3)nc2c1,inactive: 99%
11,Cc1c2cnn(-c3ccccc3)c(=O)c2c(C)n1CC(=O)Nc1ccccc1Br,inactive: 78%
12,COc1ccccc1N1CCN(S(=O)(=O)c2ccc(-c3coc(C)n3)cc2)CC1,inactive: 68%
13,Cc1ccc(Cn2c(C3CC3)nc3ccc(N)cc3c2=O)cc1,inactive: 112%
14,CCc1ccccc1NC(=O)CSc1nc2ccccc2n1CC(=O)N(C)C,inactive: 103%
15,O=C(C1CCCCC1)N(Cc1cccnc1)c1nc2ccc(Cl)cc2s1,inactive: 72%
16,Cc1ccc(N2CCN(C(=O)c3cn(C)c4ccc(S(=O)(=O)N5CCC(C)CC5)cc4c3=O)CC2C)cc1 (configuration not stated),inactive: 126%
17,CCN(C(=O)CSc1nc(-c2ccc(C(C)C)cc2)no1)c1ccccc1,inactive: 82%
18,O=C(Nc1nnc(S(=O)(=O)N2CCCc3ccccc32)s1)c1ccc(Cl)cc1,inactive: 19%
19,COc1ccc2c(c1)CC(C(=O)Nc1ccc(Br)c(C)c1)CO2 (configuration not stated),inactive: 65%
